{"source": "PubChem BioAssay AID1460", "about": "(National Center for Advancing Translational Sciences (NCATS), 2008)", "note": "Among all 270,000 compounds or so, about 5,800 (2.1%) were called active. Inconclusive means that the source gave no clear call. Such entries were picked first, then a sample of the others. Calls follow the shape of the dose curve; as a rule, active = well fitted inhibition curve with a large enough effect; inconclusive = small, poorly fitted or top-dose-only effect; inactive = flat fitted curve, though single readings scatter. Where the call is inconclusive, the potency comes from a doubtful curve fit. % is scaled to controls: 0 for no effect and ±100 for the full control effect; potency is read from the fitted curve at half-maximal effect; tags tell the direction and shape of the fitted curve."}
{"target": "Microtubule-associated protein tau (Homo sapiens) (UniProt P10636)", "sequence (P10636 whole entry, looked up)": "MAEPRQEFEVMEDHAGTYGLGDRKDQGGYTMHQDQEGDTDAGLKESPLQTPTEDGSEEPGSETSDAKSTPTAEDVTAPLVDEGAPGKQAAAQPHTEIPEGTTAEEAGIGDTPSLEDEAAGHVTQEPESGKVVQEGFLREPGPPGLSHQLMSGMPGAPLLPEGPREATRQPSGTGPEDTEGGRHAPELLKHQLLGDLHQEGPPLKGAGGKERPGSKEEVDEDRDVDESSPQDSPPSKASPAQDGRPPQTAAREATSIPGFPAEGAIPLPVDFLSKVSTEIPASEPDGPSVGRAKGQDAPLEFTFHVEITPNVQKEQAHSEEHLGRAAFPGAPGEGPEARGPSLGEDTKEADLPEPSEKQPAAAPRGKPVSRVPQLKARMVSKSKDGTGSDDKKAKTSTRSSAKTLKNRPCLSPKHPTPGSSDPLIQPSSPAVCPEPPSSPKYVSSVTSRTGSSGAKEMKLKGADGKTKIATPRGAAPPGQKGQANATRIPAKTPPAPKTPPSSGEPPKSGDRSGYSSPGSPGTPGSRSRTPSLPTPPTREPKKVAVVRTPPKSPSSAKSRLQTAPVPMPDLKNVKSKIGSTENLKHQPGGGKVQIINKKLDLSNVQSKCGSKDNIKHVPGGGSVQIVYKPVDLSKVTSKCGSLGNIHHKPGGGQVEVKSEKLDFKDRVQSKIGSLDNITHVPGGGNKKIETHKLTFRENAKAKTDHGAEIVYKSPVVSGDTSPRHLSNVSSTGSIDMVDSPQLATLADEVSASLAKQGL", "assay": "qHTS for Inhibitors of Tau Fibril Formation, Thioflavin T Binding; also: nearly all actives have a fitted effect of over 55% in size", "conditions": "recombinant tau K18 P301L, heparin-induced fibrillization, ThT fluorescence; series mostly up to 57.4 µM; activity, negative = inhibition: at the top concentration", "procedure,_shortened": "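Fibril formation assay: tau K18 P301L at 15 uM with trace Alexa 594 label, heparin inducer 20 uM, pH 7 sodium acetate buffer, 37 C for 6 hr; endpoint ThT signal.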"}
{"compound": "CC(C)COc1ccc(C(=O)Nc2sc3c(c2C(=O)O)CC(C)(C)OC3)cc1", "Potency": "active: 15.8 µM"}
{"compound": "CCOC(=O)c1cnn(-c2nc3c(C)cccc3s2)c1C(F)(F)F", "Potency": "inconclusive: 15.8 µM [inhibitor, partial curve]"}
{"compound": "CN1CC=C2C(C#N)=C(N)C(C#N)(C#N)C(c3cccc(Cl)c3Cl)C2C1", "note": "(configuration not stated)", "Potency": "inconclusive: 17.8 µM [inhibitor, partial curve]"}
{"compound": "CCC(=O)N1CCc2cc(S(=O)(=O)NC(Cc3ccccc3)C(=O)Nc3ccccc3C)ccc21", "note": "(configuration not stated)", "Potency": "inconclusive: 0.0794 µM [inhibitor, full curve, poor fit]"}
{"compound": "CCOC(=O)N1CCN(C(=O)c2ccc3c(c2)sc2nc(-c4ccc(OC)cc4)cn23)CC1", "Potency": "inconclusive: 28.2 µM [inhibitor, partial curve]"}
{"compound": "CCOc1ccc(OCC)c(NC(=O)c2cc3ccccn3n2)c1", "Potency": "inconclusive: 15.8 µM [inhibitor, partial curve]"}
{"compound": "COc1ccccc1NC(=O)C1=C(C)Nc2nc(-c3ccc(N(C)C)cc3)nn2C1c1ccncc1", "note": "(configuration not stated)", "Potency": "inconclusive: 14.1 µM [inhibitor, partial curve]"}
{"compound": "CC(C)NC(=S)Nc1c(N)[nH]c(=O)[nH]c1=O", "activity, negative = inhibition": "inactive: -1.02%"}
{"compound": "COc1ccccc1CNC(=O)CSc1ccc(-c2sc(-c3ccccc3)nc2C)nn1", "Potency": "inconclusive: 14.1 µM [inhibitor, partial curve]"}
{"compound": "CC1CCCC(NC(=O)COC(=O)c2cc(S(=O)(=O)N3CCCCC3)ccc2N2CCOCC2)C1C", "note": "(configuration not stated)", "activity, negative = inhibition": "inactive: -14.6%"}
{"compound": "O=C(COc1ccccc1)Nc1cccc(-c2nnc(-c3ccccc3)o2)c1", "Potency": "inconclusive: 20 µM [inhibitor, partial curve, poor fit]"}
{"compound": "CC1=NN(c2ccc(C(F)(F)F)cn2)C(=O)C1", "Potency": "inconclusive: 2.51 µM [inhibitor, full curve]"}
{"compound": "COc1cccc(-c2nnn(CCc3nn[nH]n3)n2)c1", "Potency": "inconclusive: 0.0794 µM [activator, full curve, poor fit]"}
{"compound": "COC(=O)c1ccc(NC(=O)Nc2ccc(C)cc2)cc1", "Potency": "inconclusive: 17.8 µM [activator, single point]"}
{"compound": "Cc1ccc(C)c(N2CCN(C(=O)CCCOc3cc(=O)n(C)c4ccccc34)CC2)c1", "Potency": "inconclusive: 20 µM [inhibitor, partial curve]"}
{"compound": "CCOc1ccccc1-c1ccc(C(=O)NCc2ccccc2)o1", "Potency": "inconclusive: 11.2 µM [inhibitor, partial curve]"}
{"compound": "Cc1cc(Cl)ccc1OCc1nc(-c2ccc(O)cc2)n[nH]1", "Potency": "inconclusive: 2.51 µM [inhibitor, partial curve]"}
